The list shows a part of the results.
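Note: jurkat cells carrying a lentiviral library of mutant zinc finger degrons fused to EGFP plus mCherry, mCherry+ cells FACS sorted, degron abundance counted by next-generation sequencing.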

For the assay, the target named is no compound (DMSO). The assay can be described thus: log2 fold change of degron read counts, EGFP-low vs EGFP+ sorted cells; higher = lower degron-EGFP level without compound (poor expression or instability). Particulars: compound: DMSO control; 18 h.
On to FCCDQCGAIFTQKGNLLRHIKL, for which the “log2 fold change of degron read counts” value was -1.32.
The same measure for FACEICGHSFTQKGNLLRHIKL: -2.35; for FLCEVCGAEFTQKGNLLRHIKL: -1.08.
The same measure for FWCPQCGACFTQKGNLLRHIKL: 0.975; for FMCPQCGAIFTQKGNLLRHIKL: 0.746; for FQCPQCGAYFTQKGNLLRHIKL: -0.864.
On to FTCPICGALFTQKGNLLRHIKL, for which the “log2 fold change of degron read counts” value is -0.0163.
As to FNCNQCGHQFTQKGNLLRHIKL, the “log2 fold change of degron read counts” value was -0.0982.
In the case of FMCNICGANFTQKGNLLRHIKL it was -0.097; in that of FHCEICGAMFTQKGNLLRHIKL, -1.1; in that of FMCEQCGAMFTQKGNLLRHIKL, -1.2.
In the case of FKCNQCGHNFTQKGNLLRHIKL it was 0.266; in that of FICEVCGAEFTQKGNLLRHIKL, -2.8; in that of FSCPICGAVFTQKGNLLRHIKL, 0.4.
In the case of FWCEVCGADFTQKGNLLRHIKL it was -1.2; in that of FQCPICGAEFTQKGNLLRHIKL, -0.597.
With FDCEICGHQFTQKGNLLRHIKL, the “log2 fold change of degron read counts” value was -1.16.
As to FVCPVCGAAFTQKGNLLRHIKL, the “log2 fold change of degron read counts” value was -0.307.
On to LRCEICGFRCTQKGNLLRHIKL, for which the “log2 fold change of degron read counts” value is 0.282.
FECNQCGRAFTQKGNLLRHIKL: the “log2 fold change of degron read counts” value is -0.84.
Turning to FTCNQCGHWFTQKGNLLRHIKL, the “log2 fold change of degron read counts” value worked out at 0.225.
With FFCEICGRTFTQKGNLLRHIKL, the “log2 fold change of degron read counts” value is -2.
In the case of FMCDVCGAKFTQKGNLLRHIKL it was -1.13.
In the case of FICPICGHDFTQKGNLLRHIKL, the “log2 fold change of degron read counts” value is -1.01.
For the sequence FKCNQCGRNFTQKGNLLRHIKL, the “log2 fold change of degron read counts” value is -1.02.
In the case of FRCDVCGAKFTQKGNLLRHIKL it was -1.55; in that of FFCDICGAEFTQKGNLLRHIKL, -2.32.
In the case of FECNVCGAQFTQKGNLLRHIKL it was -2.63; in that of FFCPICGRLFTQKGNLLRHIKL, 0.489; in that of FKCNQCGHVFTQKGNLLRHIKL, 0.0079.
In the case of FTCPICGRMFTQKGNLLRHIKL it was -0.478; in that of FMCEICGHTFTQKGNLLRHIKL, -2.34.

Source of the values: the supplement of paper PMC12645437, “Orthogonal IMiD-Degron Pairs Induce Selective Protein Degradation in Cells” (ACS Chemical Biology, 2025).
